Test results reported in publication PMC4336329 (PLoS ONE, 2015).
Screen size: about 310,000 compounds; about 2,200 (0.71%) showed an effect of 50% or more. Effects have a minus sign here. Some of the results follow.

target: human ether-à-go-go-related gene (hERG) potassium channel (human, UniProt Q12809); experiment: primary screen, population patch clamp on CHO cells stably expressing hERG
Sequence (Q12809 whole entry, looked up): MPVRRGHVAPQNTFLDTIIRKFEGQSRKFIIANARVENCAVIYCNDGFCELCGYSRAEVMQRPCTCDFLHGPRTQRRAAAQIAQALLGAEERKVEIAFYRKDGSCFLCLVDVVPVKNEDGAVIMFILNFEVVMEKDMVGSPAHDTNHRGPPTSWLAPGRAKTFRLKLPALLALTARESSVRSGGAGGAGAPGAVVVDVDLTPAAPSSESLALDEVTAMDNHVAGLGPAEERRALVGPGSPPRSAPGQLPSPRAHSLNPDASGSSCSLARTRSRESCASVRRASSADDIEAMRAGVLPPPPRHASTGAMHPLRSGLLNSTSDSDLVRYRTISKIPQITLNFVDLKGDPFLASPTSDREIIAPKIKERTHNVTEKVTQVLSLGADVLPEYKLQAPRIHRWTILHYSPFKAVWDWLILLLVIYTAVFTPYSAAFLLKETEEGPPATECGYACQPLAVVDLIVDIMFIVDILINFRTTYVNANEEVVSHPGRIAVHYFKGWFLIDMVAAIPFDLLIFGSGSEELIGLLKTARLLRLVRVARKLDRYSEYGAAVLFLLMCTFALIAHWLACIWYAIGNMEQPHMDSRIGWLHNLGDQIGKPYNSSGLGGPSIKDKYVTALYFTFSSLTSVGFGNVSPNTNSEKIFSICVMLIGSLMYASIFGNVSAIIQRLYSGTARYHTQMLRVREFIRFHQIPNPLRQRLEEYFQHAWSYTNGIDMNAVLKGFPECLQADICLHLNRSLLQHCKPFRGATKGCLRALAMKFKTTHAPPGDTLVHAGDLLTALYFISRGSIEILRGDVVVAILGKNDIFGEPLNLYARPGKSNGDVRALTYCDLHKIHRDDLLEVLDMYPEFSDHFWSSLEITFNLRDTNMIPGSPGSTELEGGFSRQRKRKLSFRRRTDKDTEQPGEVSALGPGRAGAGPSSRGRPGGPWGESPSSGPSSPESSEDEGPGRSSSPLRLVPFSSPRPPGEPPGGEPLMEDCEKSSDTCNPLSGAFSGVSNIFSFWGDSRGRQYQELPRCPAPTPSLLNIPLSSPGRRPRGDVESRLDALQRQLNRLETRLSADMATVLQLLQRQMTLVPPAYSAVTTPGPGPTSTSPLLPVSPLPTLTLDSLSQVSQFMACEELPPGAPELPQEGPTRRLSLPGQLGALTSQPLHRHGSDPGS

| Compound | hERG current change (%, negative = inhibition) at 1uM [%] |
| --- | --- |
| COc1ccc(NC(=O)N2CCCCCC2)cc1OC | 12.5 |
| CO/N=C(/CS(=O)c1ccc(Br)cc1)c1ccc(OC)cc1 (stereo not shown) | 7.07 |
| CN1CCN(C2=NC3(CCCC3)C(C#N)C(=O)N2)CC1 (stereo not shown) | 12.3 |
| Cc1nnc(SCC(=O)NC2CCCCC2)n(N)c1=O | -5.16 |
| Cc1ccc(/C(N)=N/OC(=O)c2ccc3c(c2)OCO3)cc1 | 4.94 |
| Clc1ccc(-c2nnc(N3CCCC3)nn2)cc1 | 6.43 |
| COC(=O)CC1COc2ccccc2N1C(=O)c1ccc(Cl)cc1 (stereo not shown) | -6.42 |
| O=C(CSc1nc2sc3c(c2c(=O)[nH]1)CCC3)NCCO | 2.83 |
| COc1ccc2c(c1)c(-c1csc(N)n1)c(C)n2C | 8.78 |
| O=C(Nn1c(=O)[nH]c2ccccc2c1=O)c1ccco1 | 0.905 |
| COc1cccc(OC)c1C(=O)Nc1nc(N)n(-c2ccccc2)n1 | 1.1 |
| Cc1cccc(NC(=O)Nc2ccc(Cl)cc2)n1 | 13.4 |
| Cc1ccnc2nc(C(=O)OCC(=O)Nc3ccccc3C(C)(C)C)nn12 | 5.47 |
| COc1ccc(NC(=O)C/C(C)=N/NC(=O)C(=O)NC2CCCCC2)c(OC)c1 | -3.65 |
| CCCOc1ccc(C2c3c(oc4cc(C)c(C)cc4c3=O)C(=O)N2CCCN(C)C)cc1OCC (stereo not shown) | 11.1 |
| CCCC(C(=O)NC1CCCC1)N(CCN(CC)CC)C(=O)c1snc(C(N)=O)c1N (stereo not shown) | 12.7 |
| CC(C)C[C@H](NC(=O)c1ccc(OC2CCN(C(=O)C3CC3)CC2)cc1)C(N)=O | 3.54 |
| CC1CCC/C(=C\Nc2ccc(O)cc2)C1=O (stereo not shown) | 0.838 |
| CCOC(=O)CSc1nnc(Cc2cc(=O)[nH]c(=O)[nH]2)n1-c1cccc(OC)c1 | 7.12 |
| O=C1CC(c2ccc(S(=O)(=O)Nc3cc(C(F)(F)F)cc(C(F)(F)F)c3)cc2)CN1 (stereo not shown) | 2.49 |
| CCC(C)(C)NC(=O)C(c1cccn1C)N(C(=O)Cn1nnc2ccccc21)c1ccc(F)cc1 (stereo not shown) | 8.33 |
| O=C(Nc1ccc(NC(=O)c2cccs2)cc1Cl)c1ccco1 | 14.1 |
| CC(C)Oc1ccc(C(CC(=O)O)NC(=O)C(Sc2ccccc2)c2ccccc2)cc1 (stereo not shown) | 4.79 |
| N/C(COc1ccc(C(=O)O)cc1)=N\O | -0.766 |
| CCCC(C(=O)NCC1CCCO1)N(Cc1ccco1)C(=O)CNS(=O)(=O)c1ccc(F)cc1 (stereo not shown) | 3.14 |
| CN(C)S(=O)(=O)c1cccc(NC(=O)COC(=O)CCSc2ccc(Cl)cc2)c1 | -0.613 |
| CCCN1CCN(CCCNC(=O)C(CC)n2nc(C)n3c(cc4occc43)c2=O)CC1 (stereo not shown) | 14.1 |
| COc1cc(C(c2sc3nc(C)nn3c2O)N2CCN(c3ccccc3)CC2)cc(OC)c1OC (stereo not shown) | 9.63 |

| Compound | hERG current change (%, negative = inhibition) at 1uM [%] |
| --- | --- |
| Cc1cccc(C)c1C(=NCCN(C)C)c1ccccc1.Cl | -2.42 |
| C[C@H]1C=C(C(=O)NCc2nc3ccccc3[nH]2)O[C@@H](OCCCCO)C1 | 11 |
| O=C(CN(C(=O)CNC(=O)c1ccco1)c1cccc(F)c1)NC1CCCCC1 | 9.91 |
| CC(C)=C(NC(=O)c1ccccc1)C(=O)N/N=C(\C)c1ccccc1O | 18.7 |
| O=[N+]([O-])CC(=Nc1ccc(F)cc1)N/N=C\c1oc(O)c2ccccc12 | 10.3 |
| Cc1ccc(S(=O)(=O)N2CCC(C(=O)N3CCN(c4ccccn4)CC3)CC2)cc1 | -4.27 |
| Cc1cc(C)c2oc(C(=O)N(Cc3cccs3)C3CCS(=O)(=O)C3)cc(=O)c2c1 (stereo not shown) | 11.1 |
| O=C(CNC(=O)c1ccco1)N/N=C/c1cccs1 | 13.7 |
| CN(C)C(=S)NC(C)(C)C | 4.37 |
| Cc1cc2[nH]c(=O)c(=O)[nH]c2cc1S(=O)(=O)N(C)C1CCCCC1 | 12.1 |
| Cc1c(C(=O)N(CC(C)C)c2c(N)n(Cc3ccccc3)c(=O)[nH]c2=O)sc2nc3n(c(=O)c12)CCC3 | 11.2 |
| C=CCn1c(SCC(=O)N(CC)C2CCS(=O)(=O)C2)nc2ccccc2c1=O (stereo not shown) | -81.6 |
| COCCNC(=O)C(=O)NNC(=O)CCc1ccccc1 | 9.47 |
| CCNC(=S)N=Nc1c(O)[nH]c2ccc([N+](=O)[O-])cc12 | 1.97 |
| Clc1cccc(/C(Cc2nc3ccccc3[nH]2)=N\Nc2ccccc2)c1 | 9.34 |
| CCc1ccc(C(=O)COC(=O)C(CCSC)NC(=O)C23CC4CC(CC(C4)C2)C3)cc1 (stereo not shown) | 14.1 |
| COc1ccccc1CNC(=O)COC(=O)c1ccc(Cl)c(N)c1 | 10.7 |
| Nc1nnc(SCC(=O)OCc2ccccc2)s1 | 14.4 |
| CCCCCCC[C@H](N)[C@H](O)C(=O)N(C)[C@@H](CCS(C)=O)C(=O)N[C@@H](Cc1ccc(O)cc1)C(=O)N[C@@H](Cc1ccc(O)cc1)C(=O)O (stereo partly shown) | 10.9 |
| CCCCCN(C(=O)CCC(=O)OCC(=O)c1cccc(OC)c1)c1c(N)n(CCCC)c(=O)[nH]c1=O | -23.1 |
| Cc1cc(C(=O)Cn2nnc3ccccc3c2=O)c(C)n1-c1c(C)n(C)n(-c2ccccc2)c1=O | 13.5 |
| Cc1cccc2c1OCC/C2=N\NC(=O)COc1ccccc1Cl | 10.6 |
| COCCCNC(=O)CN1CCN(Cc2ccccc2Cl)C1=O | 27 |
| CCOC(=O)c1ccc(OCc2nc(-c3cccs3)no2)cc1 | 7.51 |
| Cc1ccc(C(=O)Nc2nc3ccccc3c(=O)s2)cc1 | 15.3 |
| CN1c2ccc([N+](=O)[O-])cc2CC2(C(=O)NC(=O)NC2=O)C1c1ccccc1 (stereo not shown) | 11.1 |
| Cc1noc(C)c1COC(=O)c1ccc2c(c1)OCCO2 | 4.74 |
